{"source": "patent EP1985624A2", "about": "“Single step method of radiofluorination of biologically active compounds or biomolecules” (Bayer Schering Pharma Aktiengesellschaft, priority 2007, dated 2008)", "biological_target": "T1, human bombesin 2 receptor (GRPR) (Homo sapiens, UniProt P30550)", "T1 construct": "using GRPR-containing cell membranes (Perkin Elmer); purchased Perkin Elmer", "T1 sequence (P30550 whole entry)": "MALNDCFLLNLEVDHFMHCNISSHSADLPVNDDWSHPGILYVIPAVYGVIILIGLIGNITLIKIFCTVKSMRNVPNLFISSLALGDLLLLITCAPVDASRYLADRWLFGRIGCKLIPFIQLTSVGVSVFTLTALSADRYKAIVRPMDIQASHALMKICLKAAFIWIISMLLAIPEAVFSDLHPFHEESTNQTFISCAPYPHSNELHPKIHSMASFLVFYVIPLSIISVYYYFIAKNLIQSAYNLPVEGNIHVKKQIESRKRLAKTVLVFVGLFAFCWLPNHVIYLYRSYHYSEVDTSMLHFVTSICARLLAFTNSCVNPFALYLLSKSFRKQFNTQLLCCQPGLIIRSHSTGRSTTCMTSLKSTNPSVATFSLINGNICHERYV", "assay": "competitive receptor-binding assay (scintillation proximity assay) with 125I-[Tyr4]-Bombesin", "details": "GRPR-containing cell membranes, 90 minutes at room temperature, Table 2, B1 = CO", "protocol": "In vitro binding affinity and specificity of Bombesin analogs for the human bombesin 2 receptor (GRPR) were assessed via a competitive receptor-binding assay using ^125I-[Tyr^4]-Bombesin (Perkin Elmer; specific activity 81.4 TBq/mmol) as GRPR-specific radioligand. The assay was performed based on the scintillation proximity assay (SPA) technology (Carpenter JW et al., Meth Mol Biol 2002; 190:31-49) using GRPR-containing cell membranes (Perkin Elmer) and wheat germ agglutinin (WGA)-coated PVT beads (Amersham Bioscience).\n(§1) Briefly, GRPR-containing membranes and WGA-PVT beads were mixed in assay buffer (50 mM Tris/HCl pH 7.2, 5 mM MgCl2, 1 mM EGTA, Complete protease inhibitor (Roche Diagnostics GmbH) and 0.3% PEI) to give final concentrations of approximately 100 µg/ml protein and 40 mg/ml PVT-SPA beads. The ligand ^125I-[Tyr^4]-Bombesin was diluted to 0.5 nM in assay buffer. The test compounds were dissolved in DMSO to give 1 mM stock solutions Later on, they were diluted in assay buffer to 8 pM - 1.5 µM.\nThe assay was then performed as follows: First, 10 µl of compound solution to be tested for binding were placed in white 384 well plates (Optiplate-384, Perkin-Elmer). At next, 20 µl GRPR/WGA-PVT bead mixture and 20 µl of the ligand solution were added. After 90 minutes incubation at room temperature, another 50 µl of assay buffer were added, the plate sealed and centrifuged for 10 min at 520xg at room temperature. Signals were measured in a TopCount (Perkin Elmer) for 1 min integration time per well. The IC50 was calculated by nonlinear regression using the GraFit data analysis software (Erithacus Software Ltd.). Furthermore, the KI was calculated based on the IC50 for test compound as well as the KD and the concentration of the ligand ^125I-[Tyr^4]-Bombesin. Experiments were done with quadruple samples.\nThe Binding affinities measured for all the cold F-19 compounds are listed Table 2.\nas §1, with “Lateron,” for “Later on,”", "note": "At least one peptide structure holds a part that was inferred or is arguable (an end, a ring closure or a residue). At least one compound was matched to its structure with a doubt left. *1 amine or outer side, *2 acyl side, *3 side chain or, on linkers, in order; H or OH if unused. Where a SMILES comes first, the peptide text is derived from it. [ ]: non-standard residue; d: D form. The star is where a group is joined. Benzoyl(4-F,3-CF3) = O=C(c1ccc(F)c(C(F)(F)F)c1)*; Benzoyl(3-CN,4-F) = N#Cc1cc(C(=O)*)ccc1F; Benzoyl(3,4-F2) = O=C(c1ccc(F)c(F)c1)*; Sta = CC(C)C[C@H](N)[C@@H](O)CC(=O)O; His(π-Me) = Cn1cncc1C[C@H](N)C(=O)O; X1 = CCC(C)C(CCC(=O)[*:2])N[*:1]", "data": [{"smiles": "CC(C)C[C@H](NC(=O)C[C@H](O)[C@H](CC(C)C)NC(=O)[C@H](Cc1c[nH]cn1)NC(=O)CN(C)C(=O)[C@@H](NC(=O)[C@H](C)NC(=O)[C@H](Cc1c[nH]c2ccccc12)NC(=O)[C@H](CCC(N)=O)NC(=O)CCCCNC(=O)[C@H](CCCNC(=N)N)NC(=O)c1ccc(F)c(F)c1)C(C)C)C(N)=O", "note": "[IIB-a-37, 3,4-[19]Difluorobenzoyl-Arg-Ava-Gln-Trp-Ala-Val-NMeGly-His-Sta-Leu-NH2]", "values": [{"measurement": "Ki", "result": 0.4, "unit": "nM"}]}, {"smiles": "CC(C)C[C@H](NC(=O)C[C@H](O)[C@H](CC(C)C)NC(=O)[C@H](Cc1cncn1C)NC(=O)CNC(=O)[C@@H](NC(=O)[C@H](C)NC(=O)[C@H](Cc1c[nH]c2ccccc12)NC(=O)[C@H](CCC(N)=O)NC(=O)CCCCNC(=O)[C@H](CCCNC(=N)N)NC(=O)c1ccc(F)c(C#N)c1)C(C)C)C(N)=O", "note": "[IIB-a--2, 4-[19]-Fluoro-3-cyano-benzoyl-Arg-Ava-Gln-Trp-Ala-Val-His(Me)-Sta-Leu-NH2]", "values": [{"measurement": "Ki", "result": 0.25, "unit": "nM"}]}, {"smiles": "CC(C)C[C@H](NC(=O)C[C@H](O)[C@H](CC(C)C)NC(=O)[C@H](Cc1cncn1C)NC(=O)CNC(=O)[C@@H](NC(=O)[C@H](C)NC(=O)[C@H](Cc1c[nH]c2ccccc12)NC(=O)[C@H](CCC(N)=O)NC(=O)c1ccc(F)c(C(F)(F)F)c1)C(C)C)C(N)=O", "note": "[IIB-a-21, 4-[19]-Fluoro-3-trifluoromethyl-benzoyl-Gln-Trp-Ala-Val-Gly-His(3Me)-Sta-Leu-NH2] ({Benzoyl(4-F,3-CF3)}-QWAVG[His(π-Me)][Sta]L-NH2)", "values": [{"measurement": "Ki", "result": 0.6, "unit": "nM"}]}, {"smiles": "CC(C)C[C@H](NC(=O)C[C@H](O)[C@H](CC(C)C)NC(=O)[C@H](Cc1cncn1C)NC(=O)CNC(=O)[C@@H](NC(=O)[C@H](C)NC(=O)[C@H](Cc1c[nH]c2ccccc12)NC(=O)[C@H](CCC(N)=O)NC(=O)c1ccc(F)c(C#N)c1)C(C)C)C(N)=O", "note": "[IIB-a-5, 4-[19]-Fluoro-3-cyano-benzoyl-Gln-Trp-Ala-Val-Gly-His(3Me)-Sta-Leu-NH2] ({Benzoyl(3-CN,4-F)}-QWAVG[His(π-Me)][Sta]L-NH2)", "values": [{"measurement": "Ki", "result": 0.75, "unit": "nM"}]}, {"smiles": "CC(C)C[C@H](NC(=O)C[C@H](O)[C@H](CC(C)C)NC(=O)[C@H](Cc1cncn1C)NC(=O)CN(C)C(=O)[C@@H](NC(=O)[C@H](C)NC(=O)[C@H](Cc1c[nH]c2ccccc12)NC(=O)[C@H](CCC(N)=O)NC(=O)CCCCNC(=O)[C@H](CCCNC(=N)N)NC(=O)c1ccc(F)c(F)c1)C(C)C)C(N)=O", "note": "[IIB-a-39, 3,4-[19]Difluorobenzoyl-Arg-Ava-Gln-Trp-Ala-Val-NMeGly-His(3Me)-Sta-Leu-NH2]", "values": [{"measurement": "Ki", "result": 0.58, "unit": "nM"}]}, {"smiles": "CC(C)C[C@H](NC(=O)C[C@H](O)[C@H](CC(C)C)NC(=O)[C@H](Cc1cncn1C)NC(=O)CNC(=O)[C@@H](NC(=O)[C@H](C)NC(=O)[C@H](Cc1c[nH]c2ccccc12)NC(=O)[C@H](CCC(N)=O)NC(=O)c1ccc(F)c(F)c1)C(C)C)C(N)=O", "note": "[IIB-a-38, 3,4-[19]Difluorobenzoyl-GIn-Trp-Ala-Val-Gly-His(3Me)-Sta-Leu-NH2] ({Benzoyl(3,4-F2)}-QWAVG[His(π-Me)][Sta]L-NH2)", "values": [{"measurement": "Ki", "result": 0.55, "unit": "nM"}]}, {"smiles": "CC(C)C[C@H](NC(=O)C[C@H](O)[C@H](CC(C)C)NC(=O)[C@H](Cc1cncn1C)NC(=O)CN(C)C(=O)[C@@H](NC(=O)[C@H](C)NC(=O)[C@H](Cc1c[nH]c2ccccc12)NC(=O)[C@H](CCC(N)=O)NC(=O)CCCCNC(=O)[C@H](CCCNC(=N)N)NC(=O)c1ccc(F)c(C#N)c1)C(C)C)C(N)=O", "note": "[IIB-a-3, 4-[19]-Fluoro-3-cyano-benzoyl-Arg-Ava-Gln-Trp-Ala-Val-NMeGIy-His(3Me)-Sta-Leu-NH2]", "values": [{"measurement": "Ki", "result": 0.5, "unit": "nM"}]}, {"smiles": "CC(C)C[C@H](NC(=O)C[C@H](O)[C@H](CC(C)C)NC(=O)[C@H](Cc1cncn1C)NC(=O)CN(C)C(=O)[C@@H](NC(=O)[C@H](C)NC(=O)[C@H](Cc1c[nH]c2ccccc12)NC(=O)[C@H](CCC(N)=O)NC(=O)CCCCNC(=O)[C@H](CCCNC(=N)N)NC(=O)c1ccc(F)c(C(F)(F)F)c1)C(C)C)C(N)=O", "note": "[IIB-a-19, 4-[19]-Fluoro-3-trifluoromethyl-benzoyl-Arg-Ava-Gln-Trp-Ala-Val-N MeGly-H is(3Me)-Sta-Leu-N H2]", "values": [{"measurement": "Ki", "result": 0.65, "unit": "nM"}]}, {"smiles": "CCC(C)C(CCC(=O)N[C@@H](CC(C)C)C(N)=O)NC(=O)[C@H](Cc1cncn1C)NC(=O)CNC(=O)[C@@H](NC(=O)[C@H](C)NC(=O)[C@H](Cc1c[nH]c2ccccc12)NC(=O)[C@H](CCC(N)=O)NC(=O)c1ccc(F)c(F)c1)C(C)C", "note": "(stereo partly drawn) [IIB-a-46, 3,4-[19]Difluorobenzoyl-Gln-Trp-Ala-Val-Gly-His(3Me)-4-Am,5-MeHpA-Leu-NH2] ({Benzoyl(3,4-F2)}-QWAVG[His(π-Me)][X1]L-NH2)", "values": [{"measurement": "Ki", "result": "> 25", "unit": "nM"}]}, {"smiles": "CC(C)C[C@H](NC(=O)C[C@H](O)[C@H](CC(C)C)NC(=O)[C@H](Cc1cncn1C)NC(=O)CNC(=O)[C@@H](NC(=O)[C@H](C)NC(=O)[C@H](Cc1c[nH]c2ccccc12)NC(=O)[C@H](CCC(N)=O)NC(=O)CCCCNC(=O)[C@H](CCCNC(=N)N)NC(=O)c1ccc(F)c(F)c1)C(C)C)C(N)=O", "note": "[IIB-a-40, 3,4-[19]Difluorobenzoyl-Arg-Ava-Gln-Trp-Ala-Val-Gly-His(3Me)-Sta-Leu-NH2]", "values": [{"measurement": "Ki", "result": 1.02, "unit": "nM"}]}, {"smiles": "CC(C)C[C@H](NC(=O)C[C@H](O)[C@H](CC(C)C)NC(=O)[C@H](Cc1c[nH]cn1)NC(=O)CN(C)C(=O)[C@@H](NC(=O)[C@H](C)NC(=O)[C@H](Cc1c[nH]c2ccccc12)NC(=O)[C@H](CCC(N)=O)NC(=O)CCCCNC(=O)[C@H](CCCNC(=N)N)NC(=O)c1ccc(F)c(C#N)c1)C(C)C)C(N)=O", "note": "[IIB-a-1, 4-[19]-Fluoro-3-cyano-benzoyl-Arg-Ava-Gin-Trp-Ala-Val-NMeGly-His-Sta-Leu-NH2]", "values": [{"measurement": "Ki", "result": 0.7, "unit": "nM"}]}, {"smiles": "CC(C)C[C@H](NC(=O)C[C@H](O)[C@H](CC(C)C)NC(=O)[C@H](Cc1cncn1C)NC(=O)CNC(=O)[C@@H](NC(=O)[C@H](C)NC(=O)[C@H](Cc1c[nH]c2ccccc12)NC(=O)[C@H](CCC(N)=O)NC(=O)CCCCNC(=O)[C@H](CCCNC(=N)N)NC(=O)c1ccc(F)c(C(F)(F)F)c1)C(C)C)C(N)=O", "note": "[IIB-a-18, 4-[19]-Fluoro-3-trifluoromethyl-benzoyl-Arg-Ava-Gln-Trp-Ala-Val-Gly-His(3Me)-Sta-Leu-NH2]", "values": [{"measurement": "Ki", "result": 0.9, "unit": "nM"}]}]}
